Experimental data as given in PubChem BioAssay AID485360 (National Center for Advancing Translational Sciences (NCATS), 2010).
The whole screen tested about 230,000 compounds, of which about 1,500 (0.65%) were called active. This list was built around the results that the source calls inconclusive (neither active nor inactive); the mix of calls is not that of the screen. The call rests on the fitted dose curve; in most records, active means well fitted inhibition curve with a large enough effect; inconclusive means small, poorly fitted or top-dose-only effect; inactive means no such curve, though single readings can be large or run the other way. A potency beside an inconclusive call is a rough fit, not a confirmed value.

biological target: Lethal(3)malignant brain tumor-like protein 1 (Homo sapiens) (UniProt Q9Y468); test: qHTS Assay for the Inhibitors of L3MBTL1; conditions: AlphaScreen L3MBTL1–H3K9me1 peptide binding; series mostly up to 57.1 µM; further: nearly all actives have a fitted effect of over 60% in size
Sequence of UniProt Q9Y468 (Q9Y468 whole entry, looked up): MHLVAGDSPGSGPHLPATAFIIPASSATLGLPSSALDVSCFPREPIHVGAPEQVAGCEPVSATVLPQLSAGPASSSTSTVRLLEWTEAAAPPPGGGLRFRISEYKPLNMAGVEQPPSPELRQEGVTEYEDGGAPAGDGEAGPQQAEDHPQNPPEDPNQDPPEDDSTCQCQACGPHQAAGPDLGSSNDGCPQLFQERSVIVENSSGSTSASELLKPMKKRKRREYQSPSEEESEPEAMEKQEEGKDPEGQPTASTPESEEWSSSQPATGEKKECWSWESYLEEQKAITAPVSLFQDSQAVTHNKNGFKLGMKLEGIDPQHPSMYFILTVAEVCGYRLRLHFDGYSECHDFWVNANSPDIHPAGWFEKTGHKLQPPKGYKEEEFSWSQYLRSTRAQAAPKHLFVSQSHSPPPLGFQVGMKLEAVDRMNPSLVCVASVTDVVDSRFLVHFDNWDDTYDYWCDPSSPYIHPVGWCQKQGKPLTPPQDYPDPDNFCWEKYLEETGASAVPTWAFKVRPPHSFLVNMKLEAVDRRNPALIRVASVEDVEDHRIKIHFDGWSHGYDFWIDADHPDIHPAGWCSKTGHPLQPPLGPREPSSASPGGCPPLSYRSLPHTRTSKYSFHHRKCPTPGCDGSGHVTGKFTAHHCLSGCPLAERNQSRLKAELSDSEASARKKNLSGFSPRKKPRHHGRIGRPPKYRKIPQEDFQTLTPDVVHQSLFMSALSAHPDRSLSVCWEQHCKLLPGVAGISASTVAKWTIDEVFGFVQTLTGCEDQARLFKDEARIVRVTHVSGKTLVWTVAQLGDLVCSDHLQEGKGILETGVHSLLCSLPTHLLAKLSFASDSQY
Method in brief: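 First, the protein-peptide complex forms for 30 min at room temperature (L3MBTL1 50 nM, biotinylated H3K9me1 peptide 75 nM). Next, compounds are pin-transferred and incubated 30 min. Finally, AlphaScreen beads are added and read after 30 min.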
Potency means the concentration at half of the fitted maximal effect; tags describe the fitted curve by direction and shape.

SMILES	Potency
COc1ccc(C(=O)NCCc2c[nH]c3ccccc23)cc1S(=O)(=O)N1CCCCC1C (stereo not given)	inactive
O=S(=O)(c1ccc2oc3ccc(S(=O)(=O)N4CCCCC4)cc3c2c1)N1CCCCC1	inconclusive: 0.708 µM [inhibitor, single point]
O=C(CSc1ccc(F)cc1)NC12CC3CC(CC(C3)C1)C2	inconclusive: 20 µM [inhibitor, partial curve]
COc1ccc(/C=N/n2c(-c3n[nH]c4c3CCC4)n[nH]c2=S)c(OC)c1OC	inactive
Cc1ccc(-n2nc(C)c(C(=O)O)c2-n2cccc2)cc1	inconclusive: 25.1 µM [inhibitor, partial curve]
COc1ccc(CNc2ncnc3cc(Cl)ccc23)cc1OC	inactive
COc1ccc(/C=C/C(=O)O)cc1S(=O)(=O)N1CCCc2ccccc21	inconclusive: 31.6 µM [inhibitor, single point]
CCN1C(=O)/C(=C2\SC(=S)N(CCCOC)C2=O)c2ccccc21	inactive
Cc1cccc(-n2cnc(C(=O)NNC(=S)Nc3ccccc3)c2)n1	inconclusive: 28.2 µM [inhibitor, single point]
O=C(O)CCc1ccc(-c2cccs2)n1CCC(=O)O	active: 3.98 µM
CCCCn1c(N)c(N(CCC(C)C)C(=O)C2CC(=O)N(c3ccc(OC)cc3OC)C2)c(=O)[nH]c1=O (stereo not given)	inactive
COc1ccc(/C=N/NC(=O)CCN2CCN(c3ccccc3)CC2)c(OC)c1OC	inactive
COC(=O)CCCC[C@H]1SC[C@H]2NC(=O)N[C@]21O	active: 2.24 µM
Cc1cc(C)cc(N2CCCn3c2nc2c3c(=O)n(CC(=O)OCc3ccccc3)c(=O)n2C)c1	inconclusive: 35.5 µM [inhibitor, single point]
Cc1ccc2[nH]c(=O)c(C(c3nnnn3CCc3ccccc3)N3CCOCC3)cc2c1 (stereo not given)	inactive
O=C(Nc1ccc(CN2CCOCC2)cc1)c1cc(Br)ccc1Cl	inconclusive: 6.31 µM [inhibitor, single point]
O=[N+]([O-])c1ccccc1-c1cc(-c2ccccc2O)n[nH]1	inactive
Cc1ccc(OCC(=O)c2cc(C)n(Cc3cccs3)c2C)c([N+](=O)[O-])n1	inconclusive: 28.2 µM [inhibitor, single point]
O=C(NCN1CCc2ccccc2C1)c1cnccn1	inactive
N#CC(C#N)=c1ccc2c(c1)N1C3=C(CCCC3)CC3CCCCC31N=2 (stereo not given)	inconclusive: 0.891 µM [inhibitor, full curve]
COc1ccc(C(=O)Cc2ccc3c(c2)OCO3)c(O)c1	inconclusive: 8.91 µM [inhibitor, partial curve]
Cc1ccc2c(c1)CCCN2CC(=O)Nc1cccc(S(=O)(=O)N2CCCC2)c1	inconclusive: 28.2 µM [inhibitor, single point]
CSc1ncc(CN2CCc3c([nH]c4ccccc34)C2c2cccc(C)n2)cn1 (stereo not given)	inconclusive: 28.2 µM [inhibitor, partial curve]

SMILES	Potency
CC(=O)C1=C(c2ccccc2)NC(=O)NC1c1ccc(O)c(O)c1 (stereo not given)	inconclusive: 22.4 µM [inhibitor, single point]
CSC1=N/C(=C\c2ccc(Br)o2)C(=O)S1	inconclusive: 31.6 µM [inhibitor, single point]
CCCOc1ccc(/C=N/Nc2ccccc2[N+](=O)[O-])c(OCCC)c1	inconclusive: 1.78 µM [inhibitor, full curve, poor fit]
C/C(=C\c1ccco1)C1Nc2cccc3cccc(c23)N1	inconclusive: 0.794 µM [inhibitor, partial curve, poor fit]
O=C(COC(=O)c1cc(S(=O)(=O)N2CCOCC2)c(Cl)cc1Cl)NCc1ccco1	inconclusive: 25.1 µM [inhibitor, partial curve]
CCc1n[nH]c(=S)n1/N=C/c1cc(OC)cc([N+](=O)[O-])c1O	inconclusive: 31.6 µM [inhibitor, single point]
CC(C)c1ccc(NC(=O)COC(=O)c2nn(C)c(=O)c3ccccc23)cc1	inactive
Cc1ccc(C)c(NC(=O)CSc2nnc(Cc3cccn3C)n2-c2ccc(F)cc2)c1	inconclusive: 28.2 µM [inhibitor, single point]
O=C(CCc1ccc(O)cc1)N/N=C/c1coc2ccccc2c1=O	inconclusive: 35.5 µM [inhibitor, single point]
O=C(NCc1ccccn1)c1ccc2c(c1)N(Cc1ccccc1)CCS2	inconclusive: 22.4 µM [inhibitor, single point]
O=C(Nc1cccc2cccnc12)c1ccc(Br)cc1Br	inconclusive: 6.31 µM [inhibitor, single point]
C=CCc1c(C)[nH]c2c(OC)cccc2c1=S	inactive
COc1ccc(-c2[nH]ncc2CN2CCN(c3ccc(F)cc3)CC2)cc1	inconclusive: 14.1 µM [inhibitor, partial curve]
O=C(O)c1cccc(-n2cccc2/C=C2\NC(=O)N(Cc3ccc(F)cc3)C2=O)c1	inconclusive: 39.8 µM [inhibitor, single point]
CCC(=O)N/C(N)=N/c1nc2ccccc2o1	inconclusive: 0.562 µM [inhibitor, single point]
O=C(Nc1ccc(S(=O)(=O)Nc2nccs2)cc1)c1ccc(N2C(=O)c3ccccc3C2=O)cc1	inconclusive: 17.8 µM [inhibitor, single point]
Cn1cnnc1SCC(=O)c1cc2ccccc2o1	inactive
CN(C)c1ccc(NC(=O)Nc2cccc(Cl)c2)cc1	inconclusive: 39.8 µM [inhibitor, single point]
C=CC(C)(C)O[C@@H]1O[C@H](CO)[C@@H](O)[C@H](O)[C@H]1O	inconclusive: 39.8 µM [inhibitor, single point]
CC1(C)S[C@@H]2[C@H](NC(=O)[C@H](N)c3ccc(O)cc3)C(=O)N2[C@H]1C(=O)O	inactive
COC(=O)\C(C(C)=O)=C(/C=C/C=C/N(C)C)N(C)C	active: 14.1 µM
COc1ccc(NC2CC(=O)N(c3cccc(C)c3)C2=O)cc1 (stereo not given)	inactive
